The GPR68 mutational scans of Howard et al. (2025)
The least precise scores are not listed. The source holds two more conditions with little spread; they are left out. In variant names, del marks residues removed and ins residues inserted between the two positions. For some assays here: How much ogerin was present is not stated here.

B1: GPR68, Q15743 (parent)
chain: MGNITADNSSMSCTIDHTIHQTLAPVVYVTVLVVGFPANCLSLYFGYLQIKARNELGVYLCNLTVADLFYICSLPFWLQYVLQHDNWSHGDLSCQVCGILLYENIYISVGFLCCISVDRYLAVAHPFRFHQFRTLKAAVGVSVVIWAKELLTSIYFLMHEEVIEDENQHRVCFEHYPIQAWQRAINYYRFLVGFLFPICLLLASYQGILRAVRRSHGTQKSRKDQIQRLVLSTVVIFLACFLPYHVLLLVRSVWEASCDFAKGVFNAYHFSLLLTSFNCVADPVLYCFVSETTHRDLARLRGACLAFLTCSRTGRAREAYPLGAPEASGKSGAQGEEPELLTKLHPAFQTPNSPGSGGFPTGRLA

How the values were obtained:
[1] = variants of: B1; experiment: cAMP reporter score (Enrich2 score, wild type = 0); higher = more signal; HEK293T, FACS bins
[2] = variants of: B1; experiment: surface expression score (Enrich2 score, wild type = 0); higher = more signal; HEK293T, FACS bins

| Variant | cAMP reporter score ([1]; pH 5.5) | cAMP reporter score ([1]; pH 6) | cAMP reporter score ([1]; pH 6, modulator: ogerin) | cAMP reporter score ([1]; pH 6.5, modulator: ogerin) | surface expression score [2] |
| --- | --- | --- | --- | --- | --- |
| G90R | -1.62 | -0.908 | -1.48 | -0.659 | -0.668 |
| G90T | -0.05 | -0.924 | -0.193 | -0.683 | 0.253 |
| G90V | -1.15 | -0.698 | -1.03 | -1.2 | 0.145 |
| G90W | -1.47 | -1.01 | -1.89 | -0.92 | 0.648 |
| G90Y | -1.41 | -0.622 | -1.64 | -1.35 | -0.465 |
| G90_D91insGS | -0.457 |  | 0.028 | -1.15 | -0.427 |
| G90del | -0.912 | -0.754 | -1.79 | -0.877 | -0.161 |
| D91_L92insGS | -1.01 | -1.4 | -1.68 |  | -0.934 |
| D91_S93del | -0.889 | -0.874 |  |  | -0.277 |
| C94_Q95insGS | -1.6 | -0.838 |  | -1.15 | -0.995 |
| C94_Q95insGSG | -1.82 | -1.63 | -2 | -1.14 | -1.79 |
| V96A | -0.4 | -0.574 | -1.75 | 0.079 | 0.48 |
| V96C | -1.54 | -0.613 | -1.3 | -2.19 | -2.18 |
| V96D | -1.23 |  | -2.52 | -0.895 | -2.02 |
| V96F | 0.909 | 0.824 | -1.15 |  |  |
| V96G | -0.387 |  |  |  | -1.35 |
| V96H | -1.59 |  | -3.12 | 0.054 |  |
| V96I | -0.373 | 2.16 | 0.008 | 3.1 | 3.16 |
